Data taken from PubChem BioAssay AID488969 (Vanderbilt High Throughput Screening Facility, 2010).
Over roughly 110,000 compounds, “z-score” has its median near -0.1; the highest 2% begin near 2. The list shows a part of the results. Calls of active or inactive are those of the source.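 The calls were made as follows: active = z-score in the third read window above 3 or below -3; inactive = the rest.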 Residues, ends and D or L forms follow the SMILES beside them.

What follows are compounds tested against Metabotropic glutamate receptor 8 (Rattus norvegicus) (UniProt P70579) (assay: mGluR8 Gi/Go-coupled signaling modulation – cell-based, rat, thallium flux, HTS, primary screen (AID 488969)). Settings: HEK293 rat mGluR8, GIRK (G protein-gated inwardly rectifying potassium channel) thallium flux, FluoZin2; at 10 µM; stronger effect = higher value; submaximal glutamate (EC20) added with thallium.
UniProt P70579, sequence (P70579 whole entry, looked up): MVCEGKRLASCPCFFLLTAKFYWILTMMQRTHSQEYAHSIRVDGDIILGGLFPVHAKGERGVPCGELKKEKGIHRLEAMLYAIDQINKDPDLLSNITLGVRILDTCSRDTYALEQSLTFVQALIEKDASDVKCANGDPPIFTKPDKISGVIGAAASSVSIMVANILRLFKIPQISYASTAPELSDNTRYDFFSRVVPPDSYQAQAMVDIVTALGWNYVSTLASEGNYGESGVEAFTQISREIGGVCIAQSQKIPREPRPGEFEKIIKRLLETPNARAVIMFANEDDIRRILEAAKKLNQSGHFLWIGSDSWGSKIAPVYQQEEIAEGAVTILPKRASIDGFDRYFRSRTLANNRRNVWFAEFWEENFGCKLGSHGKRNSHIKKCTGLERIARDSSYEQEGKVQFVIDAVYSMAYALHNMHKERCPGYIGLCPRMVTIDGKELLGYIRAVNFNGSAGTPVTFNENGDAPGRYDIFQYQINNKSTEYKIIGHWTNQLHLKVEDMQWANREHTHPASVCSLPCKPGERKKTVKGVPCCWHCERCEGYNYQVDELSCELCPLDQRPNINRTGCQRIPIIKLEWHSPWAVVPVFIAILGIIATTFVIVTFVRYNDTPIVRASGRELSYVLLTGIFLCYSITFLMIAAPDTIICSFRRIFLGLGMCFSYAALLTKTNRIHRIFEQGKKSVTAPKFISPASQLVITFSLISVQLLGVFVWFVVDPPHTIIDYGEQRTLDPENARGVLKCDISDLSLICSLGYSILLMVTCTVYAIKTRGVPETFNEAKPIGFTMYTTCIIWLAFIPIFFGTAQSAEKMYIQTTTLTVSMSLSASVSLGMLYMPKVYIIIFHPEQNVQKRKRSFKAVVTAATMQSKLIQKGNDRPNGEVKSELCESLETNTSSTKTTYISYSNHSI

Compound	z-score
CCCCC(=O)Nc1ccc2oc(-c3ccncc3)nc2c1	0.0146
Cc1cccc(N(CC(=O)Nc2ccc(CC#N)cc2)S(C)(=O)=O)c1	-0.138
COc1ccc(OC)c(-n2c(-c3cc(-c4ccc(F)cc4)n[nH]3)n[nH]c2=S)c1	-0.393
COCC(=O)Nc1cc(OC)c(Cl)cc1OC	-0.118
Cc1nc(N2CCN(c3ncccn3)CC2)c2oc3ccccc3c2n1	-0.533
CC(=O)Nc1c(OC(C)=O)ccc2c(C)cc(=O)oc12	-0.24
O=C(Nn1cnnc1)c1cc2c(s1)CCCCC2	-0.148
CCOc1ccccc1NC(=O)CSc1nnc2c(CC)c(C)nc(N)n12	0.806
O=C(COC(=O)C1COc2ccccc2O1)Nc1ccc2c(c1)CCC2 (stereo not drawn)	-0.613
CC(CN(C)Cc1ccccc1)OC(=O)c1ccc(F)cc1 (stereo not drawn)	-0.647
CCOc1ccc(CSC(=N)N)cc1[N+](=O)[O-]	0.854
Cc1ccccc1NC(=O)CN1C(=O)C2C3CC(C(Br)C3Br)C2C1=O (stereo not drawn)	0.11
COC(=O)CCC(=O)c1oc2ccc(OC)cc2c1N	-0.054
O=C(COc1ncnc2ccccc12)Nc1ccc(Cl)c([N+](=O)[O-])c1	0.057
COc1ccc2c(c1)c(N=O)c(O)n2C	-0.55
CCOC(=O)C1C(=O)C=C(c2ccc(C)cc2)CC1c1cccc([N+](=O)[O-])c1 (stereo not drawn)	-0.259
CCOC(=O)c1[nH]c2ccccc2c1NC(=O)C1CCCCC1	-0.469
CN(c1ccccc1C(=O)NCc1ccccn1)S(C)(=O)=O	0.378
COC(=O)c1ccc(Oc2nc3c(c(=O)n(C)c(=O)n3C)n2CCC(C)C)cc1	1.63
O=C(CN1C(=O)CSc2ncccc21)NCCN1CCOCC1	-0.21
Cc1ccc(NC(=O)CSCC#N)cc1	-0.515
CC1(C2CC2)NC(=O)NC1=O (stereo not drawn)	-0.156

Compound	z-score
CN(C)S(=O)(=O)N(CC(=O)Nc1ccccc1C(F)(F)F)c1ccccc1	-0.553
COc1cccc(CNC(=O)C2=C(C)C(=O)OC23CCC(C)CC3)c1 (stereo not drawn)	0.296
O=C(CSc1nc2ccccc2c(=O)n1-c1ccccc1)c1c[nH]c2ccccc12	0.111
Cc1ccc(NC(=O)CCC(=O)n2nc(C)cc2C)c(C)c1	0.195
COc1ccc(-n2cnnc2SCC(=O)N2CCN(c3ccccc3)CC2)cc1	-0.51
CNc1oc(-c2ccc(OCc3ccccc3)cc2)nc1C#N	-1.76
O=C(CSc1nc2ccccc2o1)c1cc2ccccc2oc1=O	0.0764
O=C1CCN(C(=O)Nc2cccc(Cl)c2)N1	-0.0566
CCN(CC)CCN1C(=O)c2oc3ccccc3c(=O)c2C1c1ccc(F)cc1 (stereo not drawn)	active: 4.39
Nc1ccc2nc(-c3ccc(Cl)cc3)[nH]c2c1	-0.282
Cc1cccc2c(C(=O)n3cccn3)cc(-c3ccccc3Cl)nc12	0.0843
FC(F)(F)c1cnc(Oc2ccccc2-c2nnc(-c3ccc(Cl)cc3)o2)c(Cl)c1	0.667
CCOc1ccc2[nH]c(=O)c(C(c3nnnn3CCOC)N3CCOCC3)cc2c1 (stereo not drawn)	-0.578
COc1ccccc1NCC(O)Cn1c2ccccc2c2ccccc21 (stereo not drawn)	0.65
COC(=O)C(CC(C)C)NC(=O)C(N)Cc1ccccc1 (stereo not drawn) (H-Phe-Leu-OMe; configuration not given here)	-0.144
CC(C)(C)N(NC(=O)c1ccccc1)C(=O)c1cccc(C(=O)N(NC(=O)c2ccccc2)C(C)(C)C)c1	0.0347
CC(C)N(CCNC(=O)c1cn(C)c2ccc(S(=O)(=O)N(C)C)cc2c1=O)Cc1ccccc1	-0.183
O=C(/C=C/c1ccc(Br)cc1)NC(=S)NNC(=O)c1ccco1	0.734
Cc1ccc(SCC(=O)NNC(=O)C2CCCCC2)cc1	-0.0681
O=C(c1ccccc1)n1nc(-c2ccccc2)nc1NCc1ccco1	0.149
COc1ccccc1N1CCN(S(=O)(=O)c2c(C)ccc3nsnc23)CC1	0.895
CN1CCC(N(C)CC(=O)Nc2cccc(Oc3ccccc3)c2)CC1	0.0575

Compound	z-score
COc1ccc(C2C(C(=O)N3CCOCC3)CCC(=O)N2c2cc(OC)c(OC)c(OC)c2)cc1 (stereo not drawn)	0.336
Cc1ccsc1CNn1cnnc1SCc1ccc(Cl)cc1	-0.235
O=C(CCNS(=O)(=O)c1cccs1)NCc1ccccc1	-0.137
CC(C)[C@H](NS(=O)(=O)c1ccccc1)C(=O)OCC(=O)NC(=O)c1cccn1C	0.302
CCCN(CC(=O)Nc1ccccc1Br)CC(=O)Nc1ccc(F)c(F)c1F	-0.145
CC(C)(C)c1cc(CNC2CS(=O)(=O)C[C@@H]2O)cc(C(C)(C)C)c1O (stereo partly drawn)	-0.0329
COc1cc(NC(=S)N2CCN(c3ccccn3)CC2)c(OC)cc1Cl	-0.225
O=C(C1CCN(c2nnnn2-c2ccccc2)CC1)N1CCN(c2ccccc2)CC1	-0.146
CN(C)S(=O)(=O)Nc1ccccc1C(N)=O	0.208
CC(C)CNS(=O)(=O)c1ccc(S(=O)(=O)N2CCC3(CC2)OCCO3)cc1	-1.75
O=C1CC(C(=O)N2CCN(c3ccc(F)cc3)CC2)CN1CCc1ccccc1 (stereo not drawn)	-0.367
COc1ccccc1Nc1nc(-c2sc(NC(=O)c3ccc([N+](=O)[O-])cc3)nc2C)cs1	0.09
CCOC(=O)Cn1nc(-c2ccc(Cl)cc2)cc1N	-0.0867
CCOC(=O)/C(C(C)=O)=C1\OC(=O)c2ccccc21	-0.414
NC(=O)Cn1c(=O)n(CCc2ccccc2)c(=O)c2c3c(sc21)CCCC3	-0.313
CC1=C(C)CC(C(=O)Nc2nc(-c3ccc(C)cc3C)c(C)s2)C(C(=O)O)C1 (stereo not drawn)	-0.91
O=C(NCCCn1ccnc1)c1cc(-c2ccc(Cl)cc2)nc2ccccc12	-0.0592
COc1ccc(N2CC(C(=O)Nc3ccccc3C(=O)NCc3ccco3)CC2=O)cc1 (stereo not drawn)	-0.164
O=C(NCC1CCCO1)c1cccc(N2C(=O)C3C4C=CC(C4)C3C2=O)c1 (stereo not drawn)	0.367
Cc1ccn(C(CC(=O)c2ccc(Br)cc2)C(=O)O)n1 (stereo not drawn)	-0.213
O=C(CSc1nnc(-c2ccc(F)cc2)c2ccccc12)Nc1cccc(Cl)c1	0.00588
CCCSc1nc(C)nc2c1c(=O)n(C)c(=O)n2C	-1.49

Compound	z-score
COC(=O)C1=C(NC(C)=O)CCS1	0.792
CC(=O)c1sc(NC(=O)c2ccccc2F)nc1C	-0.14
COc1cc(C=Nc2cccc(C)c2)c(O)c([N+](=O)[O-])c1	-0.684
Cc1ccc(C(=O)NNC(=O)c2cccc(S(=O)(=O)N3CCN(c4ccccc4)CC3)c2)cc1	-0.324
O=C(Nc1ccon1)c1ccc(S(=O)(=O)N2CCCCCC2)cc1	-0.427
C=CCn1c(C(CC(C)C)CC(C)O)n[nH]c1=S (stereo not drawn)	-0.476
COc1ccccc1NC(=S)NNC(=O)c1ccc(O)cc1	-0.545
Cc1ccc(C(=O)Nc2nnc(SCC(=O)N3CCCc4ccccc43)s2)cc1	0.0792
COc1ccc(Cl)cc1NC(=O)CN1CCC(n2nnc3cc(F)ccc32)CC1	-0.0313
CC(C)c1ccc2[nH]c(O)c(N=NC(=O)c3ccc(CSc4nncn4C)cc3)c2c1	-0.159
CCN1C2=NCCCN2c2cc(C)c(C)cc21	0.542
Cc1cc(N2CCN(c3nc(N4CCOCC4)nc4ccccc34)CC2)c2ccccc2n1	0.213
C/C(CC1(O)C(=O)N(Cc2ccccc2)c2ccccc21)=N\O (stereo not drawn)	1.12
Cc1cc2ccccc2c(=O)n1CC(=O)N1CCN(c2cccc(Cl)c2)CC1	0.19
Cc1occc1C(=O)NC(C)C(C)(C)C (stereo not drawn)	0.462
CCC(Sc1nc(C)cc(=O)[nH]1)C(=O)Nc1nnc(C)s1 (stereo not drawn)	-2.59
CCOCCCn1c(SCc2nc3ccccc3s2)nc2ccccc2c1=O	-0.415
Cc1onc(-c2ccccc2Cl)c1C(=O)N1CCCCC1C(=O)O (stereo not drawn)	1.48
COc1cc2c(cc1NS(=O)(=O)N1CCCCC1)oc1ccccc12	-0.115
Cc1ccccc1NC(=S)N1CCOCC1	0.469
Cc1cccc(NC(=O)C2(c3ccc([N+](=O)[O-])cc3)CCCC2)c1	-0.327
COc1ccccc1S(=O)(=O)Nc1cccc(-c2nnc3n2CCCCC3)c1	-0.163

Compound	z-score
Cc1ccc(NC(=S)N/N=C/c2c(Cl)cccc2Cl)c(C)c1	active: 9.31
Cc1noc(C)c1CSc1nnc(-c2ccccc2)n1N	-0.0754
O=C(Cn1cnc2ccccc2c1=O)Nc1nnc(SCc2ccccc2)s1	-0.255
O=C(NC(Cc1ccccc1)C(=O)O)/C(=C\c1ccco1)NC(=O)c1ccccc1 (stereo not drawn)	-0.146
Cn1c(=O)c2c(nc(CN3CCc4ccccc4C3)n2CC(=O)c2ccccc2)n(C)c1=O	-0.969
COc1ccc(C(=O)CN2C(=O)NC3(CCCc4ccccc43)C2=O)cc1OC (stereo not drawn)	-0.109
COc1ccc(CC(=O)Nc2ccc(-c3noc(-c4cc(OC)c(OC)c(OC)c4)n3)cc2)cc1	0.703
Cc1ccc(-c2nc(CSCC(=O)NCc3cccnc3)c(C)o2)cc1	0.521
O=C(CCc1ccc(S(=O)(=O)NCCc2ccccc2)cc1)NCc1ccco1	-0.0958
CN(C)S(=O)(=O)c1ccc(Cl)c(NC(=O)COC(=O)C2CSC3(C)CCC(=O)N23)c1 (stereo not drawn)	0.535
O=C1CC(C(=O)Nc2ccc(C(=O)N3CCOCC3)cc2)C2(CCCCC2)O1 (stereo not drawn)	-0.248
CCCC(=O)N1c2ccccc2C(=C2SC(C(=O)OC)=C(C(=O)OC)S2)C(=S)C1(C)C	0.183
C=CCN(c1ccccc1)S(=O)(=O)c1cccc(C(=O)Nc2nc3ccccc3[nH]2)c1	-0.176
O=C1CCCc2nn(-c3ccccc3)nc21	0.93
FC(F)(F)c1cccc(OCCN2CCN(Cc3ccccc3)CC2)c1	0.397
O=S(=O)(c1ccccc1Cl)N1CCCC1c1nc(-c2ccccc2Cl)no1 (stereo not drawn)	-0.426
COc1ccc(C(=O)N2CC=C(c3ccccc3)CC2)cc1S(=O)(=O)N1CCOCC1	-0.516
CC(=O)N1C(=O)/C(=C2\SC(=S)N(c3c(C)n(C)n(-c4ccccc4)c3=O)C2=O)c2ccccc21	-0.512
COC(=O)c1[nH]c2ccc(C)cc2c1NC(=O)CN1CCN(c2ccc(F)cc2)CC1	-0.183
O=C(CN1CCN(Cc2ccccc2Cl)CC1)N=Nc1c(O)[nH]c2ccccc12	-0.318
